Source: PubChem BioAssay (NCATS)
Several values for one entry are separate records, joined by “and”; a condition that tells them apart may be missing. Equal values may be shown once. Inconclusive results, whose numbers are uncertain, are shown with a selection of clear calls. No potency is given beside an inconclusive call; the fits are too rough. Activity calls are given as the source filed them. The call rests on the fitted dose curve; in most records, active means well fitted inhibition curve with a large enough effect; inconclusive means small, poorly fitted or top-dose-only effect; inactive means no such curve, though single readings can be large or run the other way.
Potency means the concentration at half of the fitted maximal effect; tags describe the fitted curve by direction and shape.

These compounds were tested against Cytochrome P450 3A4 (Homo sapiens) (UniProt P08684) (assay: qHTS Assay for Inhibitors and Substrates of Cytochrome P450 3A4 (AID 884; further: nearly all actives have a fitted effect of over 50% in size)). Conditions: recombinant CYP3A4, Luciferin-PPXE luminescence; series mostly up to 57.1 µM.
UniProt P08684, sequence (P08684 whole entry, looked up): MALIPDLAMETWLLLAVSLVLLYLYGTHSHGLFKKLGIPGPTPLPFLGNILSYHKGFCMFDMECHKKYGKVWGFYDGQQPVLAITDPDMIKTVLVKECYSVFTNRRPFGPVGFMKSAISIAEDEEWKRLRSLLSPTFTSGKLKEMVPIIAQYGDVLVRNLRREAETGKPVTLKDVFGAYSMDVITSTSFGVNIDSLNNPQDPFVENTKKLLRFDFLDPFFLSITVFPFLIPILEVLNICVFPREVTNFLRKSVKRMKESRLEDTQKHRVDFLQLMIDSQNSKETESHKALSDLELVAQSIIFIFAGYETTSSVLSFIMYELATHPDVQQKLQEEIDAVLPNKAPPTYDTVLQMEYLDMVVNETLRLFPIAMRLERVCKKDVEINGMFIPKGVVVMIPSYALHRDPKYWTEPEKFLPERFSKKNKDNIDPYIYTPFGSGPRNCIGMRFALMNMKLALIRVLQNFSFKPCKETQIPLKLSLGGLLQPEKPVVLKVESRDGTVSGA
Procedure: NIH Molecular Libraries Screening Centers Network [MLSCN]
NIH Chemical Genomics Center [NCGC]
The P450 gene superfamily is involved in the metabolism and clearance of xenobiotics. This assay used human CYP3A4 to measure the dealkylation of luciferin-6' phenylpiperazinylyl (Luciferin-PPXE; […]) to luciferin. The luciferin is then measured by luminescence after the addition of a luciferase detection reagent. Luciferin-PPXE concentration in the assay was equal to its KM for CYP3A4. Inhibitors and some substrates limit the production of luciferin, and decrease measured luminescence.
NCGC Assay Protocol Summary:
Two uL of enzyme and substrate mix (final concentrations: 20nM CYP3A4, 25uM Luciferin-PPXE, 200mM KPO4) were dispensed into a white, solid bottom 1536-well microtiter plate. 23nL of compound was transferred by a pin tool. The plate was incubated at RT for 10 min. Two uL of an NADPH regeneration solution (Promega supplied reagent) was dispensed and the reaction was allowed to continue for 60 min at RT. Then the reaction was stopped by reconstituted luciferin detection buffer. After another 20 min of incubation the plate was read on the ViewLux (Perkin Elmer) at 60 sec exposure and 2x2 binning. This protocol was carried out with Promega-Glo reagents and further information can be found at http://www.promega.com/tbs/tb325/tb325.pdf. Data were normalized to the to AC100 inhibition (57 uM ketoconazole).
Keywords: P450, CYP3A4, Luciferase, MLSMR, MLSCN, NIH Roadmap, qHTS, NCGC
In the case of `CC(C)C(=O)N[C@@H]1CCCN1C(=O)/C=C\c1ccccc1`, the Potency is reported as inconclusive [inhibitor, partial curve].
With `CC(C)(C)CC(C)(C)c1cc(O)c(O)c(CN2CCCCC2)c1` the Potency was inconclusive [inhibitor, partial curve].
For `COC(=O)[C@@]1(Cc2ccc(F)cc2)[C@@H]2[C@@H](CC(=O)[C@H]2CC(=O)C(=O)N(C)C)CN1C(=O)c1ccccc1`, the Potency was active: 6.31 µM.
`COC(=O)c1ccc(C(/C=C/[C@@H](C)C(=O)NCCN2CCCC2)NC(=O)OCc2ccccc2)cc1` (stereo not given in full) was tested, and the Potency was active: 10 µM.
In the case of `COc1cc([C@H](O)CO)ccc1O`, the Potency is reported as inconclusive [inhibitor, full curve].
In the case of `COc1ccccc1[N+](=O)[O-]`, the Potency is reported as “inactive”.
`C/C(CCN1CCc2nc(-c3ccccc3)c(-c3ccccc3)cc2C1)=N\O[C@@H](C)c1cc(-c2c(C)cc(C)cc2C)no1` was tested, and the Potency was inconclusive [inhibitor, single point].
For `CO[C@@H]1/C=C\CC(=O)N[C@@H](C)C(=O)OC[C@@H](OC)[C@H](C)CCCC(=O)OC[C@H]1C`, the Potency was inconclusive [inhibitor, partial curve].
`C/C(CCN1CCCc2nc(C)c(C)cc21)=N\O[C@@H](C)c1cn([C@H](CO)Cc2ccccc2)nn1` was tested, and the Potency was inconclusive [inhibitor, partial curve, poor fit].
`COc1cc(OC)c2c(=O)c(-c3ccccc3)coc2c1` was tested, and the Potency was active: 15.8 µM.
In the case of `COc1ccc(O[C@H]2C=C[C@@H](c3ccccc3)O[C@@H]2CO/N=C\[C@@H](C)[C@H](OCc2ccccc2)C(C)C)cc1`, the Potency is reported as active: 3.98 µM.
`CCc1cc2c(nc1CC)CCN(CC/C(C)=N/O[C@@H](C)CN1CCCc3nc(C)c(C)cc31)C2` was tested, and the Potency was inconclusive [inhibitor, partial curve].
In the case of `CC(C)=NO[C@@H](C)c1cc(-c2c(C)cc(C)cc2C)no1`, the Potency is reported as inconclusive [inhibitor, partial curve].
`O=C(O)[C@@H]1[C@@H](C(=O)NCc2ccncc2)[C@@H]2C=C[C@@H]1O2` was tested, and the Potency was inconclusive [inhibitor, partial curve].
`Cc1nn(C)c(Cl)c1S(=O)(=O)N[C@@H](c1ccccc1)[C@]1(C)C[C@H]1[C@@H](C)C(=O)Nc1ccc2ccccc2c1` was tested, and the Potency was active: 1.26 µM.
`C[C@H]1CC[C@H]2C(=O)N[C@H](Cc3ccccc3)C(=O)N2[C@@H]1c1ccccc1` was tested, and the Potency was active: 2.51 µM.
`CCOc1ccccc1N` was tested, and the Potency was “inactive”.
In the case of `CCC/C=C(\CCC)C(NS(=O)(=O)c1ccc(C(F)(F)F)cc1)c1ccc(-c2ccccc2)cc1` (stereo not given), the Potency is reported as inconclusive [inhibitor, partial curve].
`COC(=O)C1OC(=O)C2OC23[C@]2(C)C(O)CC4C(C)(C)C(OC(C)=O)CC(OC(C)=O)[C@@]4(C)C2CC[C@@]13C` (stereo not given in full) was tested, and the Potency was active: 251 nM and active: 794 nM.
`CCCCCCN(C(=O)CCCCCN1C(=O)NC(c2ccc(C(F)(F)F)cc2)C(C(=O)OCc2ccccc2)=C1C)C(C(=O)NCCCC)c1ccc(OCC(=O)OC)c(C(=O)OC)c1` (stereo not given) was tested, and the Potency was active: 3.98 µM.
For `NNC(=O)CNc1cccc(Br)c1`, the Potency was inconclusive [inhibitor, partial curve].
For `CC(=O)OC/C=C(\C)CC/C=C(\C)CC/C=C(\C)CC/C=C(\C)CC/C=C(\C)CC/C=C(\C)CC/C=C(\C)CC/C=C(\C)CCC=C(C)C`, the Potency was “inactive”.
In the case of `CO[C@H]1COC(=O)C/C=C\[C@H](C)[C@@H](NS(=O)(=O)c2ccc(C)cc2)COC(=O)CCC[C@@H]1C`, the Potency is reported as active: 3.98 µM.
`O=C1[C@@H]2[C@H]3[C@H](O)[C@H](O)C/C(=N/OC[C@@H](O)COCc4ccco4)[C@H]3CC[C@H]2C(=O)N1c1ccc(F)cc1F` was tested, and the Potency was inconclusive [inhibitor, partial curve].
In the case of `CCC1=C(OC(=O)N(CC)CC)N2C(=O)OC(=NCc3ccccc3)[C@]2(C)[C@H]2C1=CC[C@H]1C(=O)NC(=O)[C@H]12`, the Potency is reported as active: 5.01 µM.
With `CC(C)=NOCc1cccc(-c2cc(-c3ccccc3)no2)c1` the Potency was inconclusive [inhibitor, single point].
With `Nc1nc2c(ncn2C2OC(CO)CC2O)c(=O)[nH]1` (stereo not given) the Potency was “inactive”.
In the case of `CO[C@H]1COC(=O)CCC[C@@H](C)[C@H](OC)COC(=O)[C@H]2CCCN2C(=O)C/C=C\[C@@H]1C`, the Potency is reported as inconclusive [inhibitor, single point].
In the case of `c1cc(CNCCN2CCNCC2)ccn1`, the Potency is reported as inconclusive [inhibitor, single point].
In the case of `OB(O)c1ccc(Br)cc1`, the Potency is reported as “inactive”.
In the case of `CO[C@H]1COC(=O)[C@H](C)COC(=O)[C@@H](Cc2ccccc2)NC(=O)C/C=C\[C@H]1C`, the Potency is reported as inconclusive [inhibitor, single point].
`CC(=O)OC[C@@H]1O[C@H](C/C=N\OCC[C@H]2C=C[C@H](OC(C)=O)[C@@H](COC(C)=O)O2)C=C[C@@H]1OC(C)=O` was tested, and the Potency was inconclusive [inhibitor, partial curve].
In the case of `COc1cc2c3cc1Oc1c(OC)c(OC)cc4c1[C@@H](Cc1ccc(O)c(c1)Oc1ccc(cc1)C[C@@H]3N(C)CC2)CN(C)C4`, the Potency is reported as inconclusive [inhibitor, partial curve].
In the case of `COc1cccc(Cn2c(=O)c(CCc3ccccc3)nc3cncnc32)c1`, the Potency is reported as active: 2.51 µM.
For `Cc1ccc2nc(CC(=O)c3ccc4ccccc4c3)c(=O)[nH]c2c1`, the Potency was inconclusive [inhibitor, partial curve].
In the case of `Cn1c(=O)c2[nH]c(SCCN3CCOCC3)nc2n(C)c1=S`, the Potency is reported as inconclusive [inhibitor, partial curve].
`CCCCC/C=C\C[C@H](O)/C=C\c1cccc(C[C@H](O)CCCCO)n1` was tested, and the Potency was inconclusive [inhibitor, partial curve].
With `COc1ccc(COC(=O)N/N=C2/C[C@@H](O)[C@@H](O)[C@@H]3[C@@H]4C(=O)N(C(C)(C)C)C(=O)[C@H]4CC[C@H]23)cc1` the Potency was inconclusive [inhibitor, single point].
With `C[Si](C)(C)Cl` the Potency was “inactive”.
`CCC1=C(OC(=O)N(CC)CC)N2C(=O)OC(=NCC(=O)OC)[C@]2(Cc2ccccc2)[C@H]2C1=CC[C@H]1C(=O)N(c3ccccc3)C(=O)[C@H]12` was tested, and the Potency was active: 3.16 µM.
